Test results published in PubChem BioAssay (NCATS).
Inconclusive means that the source gave no clear call. Such entries were picked first, then a sample of the others. For some of these results: No potency is given beside an inconclusive call; the fits are too rough. The source made the active and inactive calls. Calls come from the whole dose curve; as a rule, active = well fitted curve in the direction sought with a large enough effect; inconclusive = small, poorly fitted or top-dose-only effect, or another doubt; inactive = no such curve, though single readings can be large; an effect the other way counts as inactive or inconclusive.

Key:
[1] = biological target: Rap guanine nucleotide exchange factor 3 (Homo sapiens) (UniProt O95398); assay: Confirmatory qHTS for antagonist of cAMP-regulated guanine nucleotide exchange factor 3 (EPAC1) (AID 1645880); details: EPAC1 Rap1B-BODIPY-GDP exchange, fluorescence; series mostly up to 115 µM; note: nearly all actives have a fitted effect of over 55% in size; note: potency is the fitted concentration of half-maximal effect
How it was run: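 Nucleotide exchange uses 100 nM EPAC1, 250 nM RAP1B-BODIPY-GDP and 50 uM GDP, with compounds in a concentration-titration series. After 5 min at room temperature, fluorescence (480 nm ex/540 nm em) is read every 5 min for 30 min. Data are normalized to control ATA and DMSO.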

[2] = Primary qHTS for inhibitors of nuclear receptor binding SET domain protein 2 (NSD2) in an RCH-ACV wild type WT cells (2C) (AID 1645877); note: nearly all actives have a fitted effect of over 70% in size
[3] = Primary redox qHTS assay for identification of artifact compounds. (AID 1845223); note: potency is the fitted concentration of half-maximal effect
How it was run: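 Amplex Red (25 uM) and HRP (250 mU/mL) in HBSS, with compounds for 15 min, then 250 uM DTT for 30 min, room temperature, dark. Fluorescence 525/598 nm read; normalized to DMSO and 10 uM DA3003; Hill fit.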

[4] = biological target: Rap guanine nucleotide exchange factor 3 (Homo sapiens) (UniProt O95398); assay: Confirmatory qHTS for agonist of cAMP-regulated guanine nucleotide exchange factor 3 (EPAC1) (AID 1645881); details: EPAC1 Rap1B BODIPY-GDP exchange fluorescence; activation: at 154 µM (top of the series), 100% = cAMP control response; note: potency is the fitted concentration of half-maximal effect; nearly all actives have a fitted effect of over 75% in size
[5] = biological target: Rap guanine nucleotide exchange factor 4 (Homo sapiens) (UniProt Q8WZA2); assay: Confirmatory qHTS for agonist of cAMP-regulated guanine nucleotide exchange factor 4 (EPAC2) (AID 1645884); details: EPAC2 GEF activity, Rap1B-BODIPY-GDP fluorescence; activation: at 154 µM (top of the series), percent relative to cAMP agonist control;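 note: nucleotide exchange releases bodipy-GDP from Rap1 and this lowers its fluorescence; potency is the fitted concentration of half-maximal effect; nearly all actives have a fitted effect of over 65% in size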
[6] = biological target: Rap guanine nucleotide exchange factor 4 (Homo sapiens) (UniProt Q8WZA2); assay: Confirmatory qHTS for antagonist of cAMP-regulated guanine nucleotide exchange factor 4 (EPAC2) (AID 1645885); details: activity change, negative = inhibition: at 12.7 µM (top of the series) unless noted; note: nearly all actives have a fitted effect of over 25% in size; note: potency is the fitted concentration of half-maximal effect
[7] = biological target: Rap guanine nucleotide exchange factor 3 (Homo sapiens) (UniProt O95398); assay: Counterscreen qHTS for agonist of cAMP-regulated guanine nucleotide exchange factor 3 (EPAC1) (AID 1645889); details: EPAC1 Rap1B-BODIPY-GDP exchange, fluorescence; activation: at 154 µM (top of the series) unless noted; note: nearly all actives have a fitted effect of over 40% in size; note: potency is the fitted concentration of half-maximal effect
How it was run: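 Rap1B-BODIPY-GDP 250 nM + GDP 50 uM; cpds 7-pt, final 9.74 nM–152 uM (activator mode) or from 7.32 nM upwards (inhibitor mode); RT; FI 480/540 nm at 5 and 30 min, then ± cAMP, reread.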

[8] = biological target: Tumor susceptibility gene 101 protein (Homo sapiens) (UniProt Q99816); assay: qHTS Assay for Iinhibitors of HIV-1 Budding by Blocking the Interaction of PTAP/TSG101: Hit Validation (AID 651600); note: potency is the fitted concentration of half-maximal effect; nearly all actives have a fitted effect of over 70% in size
How it was run: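 Tsg101 binding domain 10 uM + FITC-PTAP peptide 50 nM (final), 10 mM HEPES pH 7.5/0.15 M NaCl/0.01% Tween 20/3 mM EDTA/0.1 mM TCEP; 20 min RT; FP read, FITC filters.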
Tags give direction and shape of the fitted curve.

Sequence of UniProt Q8WZA2 (Q8WZA2 whole entry, looked up): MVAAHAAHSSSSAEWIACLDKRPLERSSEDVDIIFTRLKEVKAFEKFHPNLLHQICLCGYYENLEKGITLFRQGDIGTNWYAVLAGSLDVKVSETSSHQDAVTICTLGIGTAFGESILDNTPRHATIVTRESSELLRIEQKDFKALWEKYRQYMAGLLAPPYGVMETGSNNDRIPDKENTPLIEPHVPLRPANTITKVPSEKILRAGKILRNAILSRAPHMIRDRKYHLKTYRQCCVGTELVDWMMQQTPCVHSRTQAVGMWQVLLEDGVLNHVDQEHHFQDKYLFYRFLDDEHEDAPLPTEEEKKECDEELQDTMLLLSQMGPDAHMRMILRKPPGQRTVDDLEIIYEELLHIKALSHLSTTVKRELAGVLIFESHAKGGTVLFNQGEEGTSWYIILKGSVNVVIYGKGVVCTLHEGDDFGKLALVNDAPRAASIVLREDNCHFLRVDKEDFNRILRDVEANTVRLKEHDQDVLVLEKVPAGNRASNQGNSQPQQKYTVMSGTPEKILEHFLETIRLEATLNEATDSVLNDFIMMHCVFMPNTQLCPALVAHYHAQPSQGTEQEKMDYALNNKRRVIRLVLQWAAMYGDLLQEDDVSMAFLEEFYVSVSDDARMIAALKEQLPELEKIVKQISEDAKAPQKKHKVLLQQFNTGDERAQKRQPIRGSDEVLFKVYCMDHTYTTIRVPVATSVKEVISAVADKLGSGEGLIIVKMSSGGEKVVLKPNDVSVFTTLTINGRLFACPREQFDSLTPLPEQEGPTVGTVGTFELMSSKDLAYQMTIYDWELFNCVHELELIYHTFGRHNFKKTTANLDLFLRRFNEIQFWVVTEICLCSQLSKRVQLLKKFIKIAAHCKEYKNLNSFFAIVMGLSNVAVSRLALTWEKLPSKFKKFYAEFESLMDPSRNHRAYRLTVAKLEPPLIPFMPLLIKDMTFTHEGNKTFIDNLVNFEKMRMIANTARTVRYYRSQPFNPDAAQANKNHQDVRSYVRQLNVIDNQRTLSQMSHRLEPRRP
Sequence of UniProt O95398 (O95398 whole entry, looked up): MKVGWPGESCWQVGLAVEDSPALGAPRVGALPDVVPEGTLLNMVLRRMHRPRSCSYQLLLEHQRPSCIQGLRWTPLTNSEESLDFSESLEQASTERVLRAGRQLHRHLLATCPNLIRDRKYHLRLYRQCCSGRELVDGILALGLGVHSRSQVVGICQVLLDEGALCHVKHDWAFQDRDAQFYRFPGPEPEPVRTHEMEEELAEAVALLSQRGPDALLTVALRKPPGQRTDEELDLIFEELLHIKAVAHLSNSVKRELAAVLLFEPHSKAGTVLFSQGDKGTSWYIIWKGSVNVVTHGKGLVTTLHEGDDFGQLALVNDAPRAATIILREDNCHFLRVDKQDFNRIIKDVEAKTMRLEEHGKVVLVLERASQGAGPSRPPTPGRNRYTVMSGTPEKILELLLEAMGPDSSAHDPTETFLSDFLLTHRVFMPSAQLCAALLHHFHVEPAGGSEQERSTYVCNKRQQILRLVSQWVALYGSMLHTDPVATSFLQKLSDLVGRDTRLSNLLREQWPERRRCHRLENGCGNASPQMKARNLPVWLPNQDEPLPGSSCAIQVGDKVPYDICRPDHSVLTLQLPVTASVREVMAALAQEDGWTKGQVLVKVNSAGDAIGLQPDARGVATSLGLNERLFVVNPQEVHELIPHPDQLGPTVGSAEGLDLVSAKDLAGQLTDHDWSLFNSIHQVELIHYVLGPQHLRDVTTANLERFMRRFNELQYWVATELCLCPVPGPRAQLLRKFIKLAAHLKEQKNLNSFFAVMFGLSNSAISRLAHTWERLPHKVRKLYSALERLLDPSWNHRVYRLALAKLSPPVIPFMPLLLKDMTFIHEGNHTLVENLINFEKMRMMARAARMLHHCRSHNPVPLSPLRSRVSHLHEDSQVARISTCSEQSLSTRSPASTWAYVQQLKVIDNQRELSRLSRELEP
Sequence of UniProt Q99816 (Q99816 whole entry, looked up, the tested form may be a part): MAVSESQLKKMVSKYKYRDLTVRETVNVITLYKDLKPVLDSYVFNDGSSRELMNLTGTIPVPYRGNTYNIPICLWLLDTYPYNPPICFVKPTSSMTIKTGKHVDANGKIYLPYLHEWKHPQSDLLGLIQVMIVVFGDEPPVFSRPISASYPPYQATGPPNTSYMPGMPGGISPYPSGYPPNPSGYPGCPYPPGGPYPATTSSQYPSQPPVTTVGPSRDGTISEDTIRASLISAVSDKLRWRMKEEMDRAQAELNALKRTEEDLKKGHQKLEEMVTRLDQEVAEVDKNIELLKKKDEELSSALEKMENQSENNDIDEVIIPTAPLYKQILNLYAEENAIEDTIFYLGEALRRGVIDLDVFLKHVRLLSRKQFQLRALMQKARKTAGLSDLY

SMILES: CCOc1ccc(C=NNc2ccc(S(=O)(=O)Nc3ccccc3C(=O)O)cc2[N+](=O)[O-])cc1
- Potency [1]: inconclusive [inhibitor, full curve]

SMILES: CC1(C)CC[C@]2(C(=O)O[C@@H]3O[C@H](CO[C@@H]4O[C@H](CO)[C@@H](O)[C@H](O)[C@H]4O)[C@@H](O)[C@H](O[C@@H]4O[C@H](CO)[C@@H](O)[C@H](O)[C@H]4O)[C@H]3O)CC[C@]3(C)C(=CCC4[C@@]5(C)CC[C@H](O[C@@H]6OC[C@@H](O)[C@H](O)[C@H]6O)[C@@](C)(C(=O)O)C5CC[C@]43C)[C@@H]2C1 (some centres not stated)
- outcome [2]: inactive [at 9.23 µM]
- Potency [3]: inconclusive [activator, full curve, poor fit]

SMILES: COc1ccccc1/C=C1\SC(=S)N(NS(=O)(=O)c2ccc(C)cc2)C1=O
- Potency [1]: active: 12.6 µM

SMILES: CCCCN(Cc1ccccc1)C(=O)c1oc(=O)c2ccccc2c1-c1ccc(C)cc1
- Potency [1]: inconclusive [inhibitor, partial curve, poor fit]

SMILES: COc1ccc(/C=C2/C(=O)N(CC3CCCO3)C(=S)N2C)c(OC)c1 (configuration not stated)
- Potency [1]: active: 84.9 µM

SMILES: Cc1ccc(CN(C(=O)COc2cccc(Cl)c2)c2ccccn2)o1
- Potency [1]: inactive

SMILES: COc1ccccc1NC(=O)COC(=O)c1ccc([N+](=O)[O-])s1
- Potency [1]: active: 21.3 µM

SMILES: COC(=O)c1cc(CNC(=O)c2ccccn2)cc(NC(=O)c2ccccc2OC)c1
- Potency [1]: inactive

SMILES: CCOC(=O)c1c(C)[nH]c(C(=O)OCC(=O)Nc2sccc2C(N)=O)c1C
- Potency [1]: inconclusive [inhibitor, partial curve]

SMILES: CC1CCCCC1Nc1nc2ccc(Cl)cc2n2cnnc12 (configuration not stated)
- Potency [1]: inactive

SMILES: CC1CN(C(=O)COC(=O)COc2ccc(C#N)cc2)CC(C)O1 (configuration not stated)
- Potency [1]: inactive

SMILES: COc1ccc(-n2c(C)cc(/C=C3\SC(=O)NC3=O)c2C)cc1
- Potency [1]: inconclusive [inhibitor, single point]

SMILES: O=C(O)CCCC(=O)N1CCN(c2nc(-c3ccccc3Cl)c3cc(Br)ccc3n2)CC1
- Potency [1]: inconclusive [inhibitor, partial curve]

SMILES: CC1(C(=O)NS(=O)(=O)c2ccc3c(c2)CCO3)CCN1C(=O)C1(c2ccc(Cl)cc2)CCC1 (configuration not stated)
- Potency [1]: active: 39.8 µM

SMILES: O=C(N/N=C/c1c(O)n(-c2ccccc2Cl)c(=O)c2ccccc12)c1cccnc1
- Potency [1]: active: 3.38 µM

SMILES: Nc1ccc(CSc2ccc(Cl)cc2)c(Cl)c1
- Potency [1]: inconclusive [inhibitor, single point]
- Potency [4]: inconclusive [activator, partial curve, poor fit]
- Potency [5]: inconclusive [activator, partial curve, poor fit]
- Potency [6]: active: 21.3 µM
- Potency [7]: inconclusive [activator, full curve, poor fit]

SMILES: Nc1nc(N)c2c(ccc3c2ccn3Cc2cccc([N+](=O)[O-])c2)n1
- Potency [1]: inconclusive [inhibitor, partial curve]
- Potency [4]: inconclusive [activator, single point]
- Potency [5]: active: 100 µM
- Potency [6]: inconclusive [inhibitor, partial curve, poor fit]
- Potency [7]: inconclusive [activator, full curve, poor fit]

SMILES: CCOC(=O)c1c(-c2ccccc2)oc2ccc(O)cc12
- Potency [1]: inconclusive [inhibitor, partial curve, poor fit]
- Potency [4]: inconclusive [activator, partial curve, poor fit]
- Potency [5]: inconclusive [activator, partial curve, poor fit]
- Potency [6]: inconclusive [inhibitor, partial curve]
- Potency [7]: inconclusive [activator, full curve, poor fit]

SMILES: CCN1CC=C2C(C#N)=C(N)C(C#N)(C#N)C(CCc3ccccc3)C2C1 (configuration not stated)
- Potency [8]: inconclusive [inhibitor, single point]
- Potency [1]: inconclusive [inhibitor, full curve]
- Potency [4]: active: 50.1 µM
- Potency [5]: active: 50.1 µM
- Potency [6]: inconclusive [inhibitor, partial curve, poor fit]
- Potency [7]: active: 5.62 µM

SMILES: Oc1ccc(N=Cc2sc3ccccc3c2Cl)cc1
- Potency [1]: inactive
- Potency [4]: inconclusive [activator, partial curve, poor fit]
- Potency [5]: inconclusive [activator, partial curve, poor fit]
- Potency [6]: inactive
- Potency [7]: inactive

SMILES: O=C(NCc1ccc(F)cc1)c1cccc2c1C(=O)c1ccc(N3CCOCC3)cc1S2(=O)=O
- Potency [1]: inactive
- Potency [4]: active: 56.2 µM
- Potency [5]: active: 89.1 µM
- Potency [6]: inconclusive [inhibitor, full curve, poor fit]
- Potency [7]: active: 56.2 µM

SMILES: CCCn1c(O)c(N=Nc2ccc3ccccc3n2)c2ccccc21
- Potency [1]: inactive
- Potency [4]: inconclusive [activator, partial curve, poor fit]
- Potency [5]: active: 100 µM
- Potency [6]: active: 21.3 µM
- Potency [7]: inconclusive [activator, partial curve, poor fit]
